# Test results reported in PubChem BioAssay AID504832 (National Center for Advancing Translational Sciences (NCATS), 2011).
# In all, about 310,000 compounds went through this assay and about 18,000 (5.8%) were called active. This list was built around the results that the source calls inconclusive (neither active nor inactive); the mix of calls is not that of the screen. The call rests on the fitted dose curve; in most records, active means well fitted inhibition curve with a large enough effect; inconclusive means small, poorly fitted or top-dose-only effect, or another doubt; inactive means no such curve, though single readings can be large or run the other way. Potencies of inconclusive entries are left out as doubtful fits.
# Test: Primary qHTS for delayed death inhibitors of the malarial parasite plastid, 48 hour incubation
# Conditions: P. falciparum luciferase growth in erythrocytes; series mostly up to 28.7 µM
# Procedure, shortened: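 Here the parasites carry a stable luciferase gene and grow inside erythrocytes in Albumax-based RPMI medium with compound for one erythrocytic cycle. Activity is scored as loss of luminescent signal.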
# Potency means the concentration at half of the fitted maximal effect; tags describe the fitted curve by direction and shape.
row,SMILES,Potency
1,CCOc1ncccc1C(=O)N1CCCSC1=Nc1ccc(C(C)=O)cc1,"inconclusive [inhibitor, single point]"
2,C=CCOC(=O)CCCCCCCC,inactive
3,Cc1cc(Nc2cccc(Cl)c2)nc(-c2ccccc2O)n1,"inconclusive [inhibitor, single point]"
4,O=C(C1=C[C@H](C2CC2)C[C@H](OCc2ccc(CO)cc2)O1)N1CCN(Cc2ccccc2)CC1,"inconclusive [inhibitor, partial curve, poor fit]"
5,Cc1coc2c1c(C)cc1oc(=O)c(CC(=O)NCCC(=O)O)c(C)c12,"inconclusive [inhibitor, partial curve, poor fit]"
6,O=C(NCC(c1cccs1)N1CCOCC1)C1CCN(S(=O)(=O)c2c(Cl)cccc2Cl)CC1 (centres undefined),active: 13.1 µM
7,CN(C[C@H](Cc1ccccc1)N(C[C@H](Cc1ccccc1)N(CCC(C)(C)C)N=O)N=O)N=O,"inconclusive [inhibitor, full curve, poor fit]"
8,COc1ccc2c(c1)c(CC(=O)Nc1nnc(C3CC3)s1)c(C)n2C(=O)c1ccc(Cl)cc1,"inconclusive [inhibitor, full curve]"
9,Cc1cccc(/C=N/Nc2nncc3ccccc23)c1,inactive
10,CCOc1cc2[nH]c(=S)n(CCN3CCCCC3C)c(=O)c2cc1OCC (centres undefined),"inconclusive [inhibitor, single point]"
11,CCOc1ccc(-c2csc(NC(=O)c3ccco3)n2)cc1,inactive
12,O=C(N/N=C/C(Br)=C/c1ccccc1)c1cccnc1,active: 10.4 µM
13,CCN1CCc2c(sc(NC(=O)c3ccc(C(=O)c4ccccc4)cc3)c2C(N)=O)C1,"inconclusive [inhibitor, single point]"
14,Cc1ccc(C(=O)OCc2nnc(-c3ccccc3)o2)o1,inactive
15,O=C(CSc1nc2ccccc2s1)c1cc2ccccc2o1,inactive
16,O=C(NNC(=S)Nc1ccc(Cl)cc1)c1ccccc1,inactive
17,CCOC(=O)c1c(/N=C/N(C)C)sc(/C=N/Nc2ccccc2)c1-c1ccc(Cl)cc1,active: 13.1 µM
18,O=C(COc1ccc(F)cc1)Nc1ccccc1N1CCOCC1,inactive
19,O=S(=O)(c1ccc(F)c(F)c1F)N1CCN(C(=S)Nc2ccccc2)CC1,active: 2.33 µM
20,CC(NC(=O)CCSc1nc(-c2ccco2)cc(C(F)(F)F)n1)c1ccccc1 (centres undefined),"inconclusive [inhibitor, single point]"
21,CCOc1ccc(NC(=O)CCC(=O)NNC(=O)c2ccc(Br)o2)cc1,inactive
22,CCOc1ccc(C2NC(=O)NC(c3ccccc3)=C2C(C)=O)cc1OC (centres undefined),"inconclusive [inhibitor, single point]"
23,COc1ccc(C2/C=C\CN(C(=O)c3ccccc3)CC(=O)N2Cc2ccc(F)cc2)cc1 (centres undefined),"inconclusive [inhibitor, single point]"
24,COc1ccc(C2/C=C\CN(C(=O)Oc3ccc(C(F)(F)F)cc3)CC(=O)N2Cc2ccc(F)cc2)cc1 (centres undefined),"inconclusive [inhibitor, single point]"
25,C/C(=N\NC(=O)C1(C)CC1(Br)Br)c1ccc(NC(=O)C2CCC2)cc1 (centres undefined),"inconclusive [inhibitor, partial curve]"

row,SMILES,Potency
1,O=C(NCC1CCCN1S(=O)(=O)c1cccs1)c1cccc(Cl)c1 (centres undefined),"inconclusive [inhibitor, single point]"
2,Cc1ccc(S(=O)(=O)N[C@@H](CCCCN)C(=O)CCl)cc1,"inconclusive [inhibitor, single point]"
3,CC(C)(CC(=O)O)CC(=O)Nc1ccccc1Oc1ccccc1,inactive
4,COc1ccc(/C=N/NC(=O)c2ccoc2C)cc1CN1CCN(c2ccc(F)cc2)CC1,active: 9.28 µM
5,O=[N+]([O-])c1cccc(S(=O)(=O)Nc2cccc(-c3ccc(N4CCOCC4)nn3)c2)c1,"inconclusive [inhibitor, partial curve, poor fit]"
6,Cc1cccc(NC(=O)/C(=C\c2cccs2)NC(=O)c2ccccc2)c1,"inconclusive [inhibitor, single point]"
7,CCc1c(C(=O)Nc2ccc(OC)c(Cl)c2)[nH]c(C)c1C(C)=O,active: 11.7 µM
8,COc1ccc(NC(=O)COC(=O)CCC(=O)c2cccs2)cc1OC,inactive
9,CCNC(=S)N/N=C/c1sccc1C,"inconclusive [inhibitor, single point]"
10,O=C(Nc1ccc(Cl)cn1)c1cc(S(=O)(=O)N2CCCCC2)ccc1Cl,"inconclusive [inhibitor, partial curve]"
11,C#CCOCCOCCOCCNc1nc(N2CCN(C(=O)[C@H]([C@@H](C)CC)n3cc(CCCCN)nn3)CC2)nc(N2CCN(C(=O)[C@H]([C@@H](C)CC)n3cc(CCCN=C(N)N)nn3)CC2)n1,"inconclusive [inhibitor, single point]"
12,CCc1nc(NC(C)C)c2oc3ccccc3c2n1,inactive
13,Cn1cccc1CC(=O)NNC(=O)Nc1ccc(Cl)cc1,"inconclusive [inhibitor, partial curve, poor fit]"
14,CC(C)c1ccc(C(=O)N(c2ccccn2)C(C)c2ccco2)cc1 (centres undefined),"inconclusive [inhibitor, single point]"
15,COc1ccc(NC(=O)C2CCCN(c3nn4c(=O)cc(C)nc4s3)C2)c(OC)c1 (centres undefined),"inconclusive [inhibitor, partial curve, poor fit]"
16,Cc1cccc(/C=N\NC(=O)c2ccccc2-n2cccc2)c1,inactive
17,CCC(CC)C(=O)c1c[nH]c(C(=O)NC2CCCCCC2)c1,"inconclusive [inhibitor, single point]"
18,CC(=O)N(Cc1cc2cc(C)ccc2[nH]c1=O)c1cccc(C)c1C,inactive
19,Nc1c(S(=O)(=O)c2cccs2)c2nc3ccccc3nc2n1Cc1cccs1,"inconclusive [inhibitor, partial curve]"
20,Cc1cc(OC(C)C(N)=O)nc(-c2ccccc2)n1 (centres undefined),active: 14.7 µM
21,Cc1cc2ccccc2n1CCNC(=O)C(C)Oc1ccccc1 (centres undefined),"inconclusive [inhibitor, partial curve]"
22,CCc1ccc(S(=O)(=O)NCC2(N3CCOCC3)CCCCC2)cc1,"inconclusive [inhibitor, single point]"
23,COc1ccc(C(=O)N[C@H](C(=O)Nc2nc3c(s2)CCCC3)C(C)C)cc1,inactive
24,CC(C)CC(NC(=O)c1cccs1)c1nnc(SCc2ccc(Cl)c(Cl)c2)n1C (centres undefined),active: 11.7 µM
25,CCN(CC)C(=O)CSc1nnc2cc(C)c3ccccc3n12,inactive

row,SMILES,Potency
1,Cc1cccc(NC(=O)COC(=O)c2ccccn2)c1,inactive
2,O=C(NCc1ccccc1)C1CCCC1,"inconclusive [inhibitor, full curve, poor fit]"
3,COc1cc2cncc(Cc3ccc(Cl)cc3)c2cc1OC,active: 8.28 µM
4,Cc1cc(NC(=O)CSc2nc3sc(C)c(C)c3c(=O)n2C2CCCC2)no1,inactive
5,Cc1nnc(NC(=O)c2ccc(S(=O)(=O)N(C)c3ccccc3)cc2)s1,inactive
6,COc1ccccc1N1CCN(c2cc(N3CCCC3)nc(C)n2)CC1,"inconclusive [inhibitor, partial curve, poor fit]"
7,Cc1ccccc1OCCOC(=O)c1c(-c2ccccc2)noc1C,active: 11.7 µM
8,CC(=O)OC(C)=O,inactive
9,CC(=O)c1c(O)cc(C)n(Nc2nc(C)cc(C)n2)c1=O,active: 11.7 µM
10,O=C(Nc1cc(C(F)(F)F)ccc1N1CCOCC1)c1cn2ccccc2n1,"inconclusive [inhibitor, partial curve]"
11,N/C(Cc1ccc(Cl)cc1Cl)=N\OC(=O)Cc1ccccc1,inactive
12,COCCCNc1nc2c(c(=O)n(C)c(=O)n2C)n1Cc1cccc(OC)c1,inactive
13,Cc1nn(-c2ccc([N+](=O)[O-])cc2)c2c1C(c1cccc(Br)c1)N1C(=N2)C(=O)Nc2ccccc21 (centres undefined),active: 1.31 µM
14,CCOc1cc(N2CCOCC2)c(OCC)cc1NC(=O)c1cc(S(=O)(=O)N2CCOCC2)ccc1Cl,"inconclusive [inhibitor, partial curve]"
15,Cn1c(Cn2nnc3ccccc32)nnc1SCC(=O)N1c2ccccc2CCc2ccccc21,"inconclusive [inhibitor, partial curve, poor fit]"
16,Cc1ccc(S(=O)(=O)c2cc3c(=O)n4ccccc4nc3n(C)c2=N)cc1,"inconclusive [inhibitor, single point]"
17,Cc1ccc(N2C(=O)C3N=NN(CC(=O)N4N=C(c5cccc6ccccc56)CC4c4ccccc4)C3C2=O)cc1 (centres undefined),active: 13.1 µM
18,Fc1ccc2[nH]c3c(Cl)ncnc3c2c1,inactive
19,Cc1ccc(C(=O)Nc2nc(-c3ccccn3)cs2)s1,active: 0.415 µM
20,COc1ccc2oc(C(F)(F)C(F)(F)F)cc(=O)c2c1,"inconclusive [inhibitor, full curve, poor fit]"
21,COC(=O)C(CC(C)C)NC(=O)/C=C/c1ccccc1Cl (centres undefined),active: 13.1 µM
22,CCN(C=NC1=NN(c2cccc(C(F)(F)F)c2)CC1)CC,inactive
23,COc1ccccc1N1CCN(C(=O)C2CCN(S(=O)(=O)c3ccccc3)CC2)CC1,"inconclusive [inhibitor, partial curve, poor fit]"
24,COc1ccc(NC(=O)Cn2nnc(C(=O)NCCc3ccc(OC)c(OC)c3)c2N)c(OC)c1,inactive
